Assay results taken from PubChem BioAssay AID1458 (National Center for Advancing Translational Sciences (NCATS), 2008).
Among all 210,000 compounds or so, about 5,900 (2.8%) were called active. Inconclusive results, whose numbers are uncertain, are shown with a selection of clear calls. Calls come from the whole dose curve; as a rule, active = well fitted activation curve with a large enough effect; inconclusive = small, poorly fitted or top-dose-only effect; inactive = no such curve, though single readings can be large or run the other way. Where the call is inconclusive, the potency comes from a doubtful curve fit.

experiment: qHTS Assay for Enhancers of SMN2 Splice Variant Expression; settings: HEK293 SMN2-luciferase splicing reporter, luminescence, 30-36 h; series mostly up to 46.1 µM; note: nearly all actives have a fitted effect of over 55% in size
Procedure, shortened: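 HEK293 cells carry an SMN2 minigene-luciferase reporter in which exon 7 inclusion puts luciferase in frame. Cells were seeded at 2000 cells/well, attached for 10-12 hours, then exposed to compounds for 30-36 hours at 37C before ONE-Glo luminescence.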
Potency is the fitted concentration of half-maximal effect; tags give direction and shape of the fitted curve.

Compound | Potency
COc1ccc(C(=O)/C=C(\C)Nc2ccc3c(c2)OCO3)cc1 | inconclusive: 35.5 µM [activator, single point]
CCc1ccc2oc(C(=O)Nc3nonc3CC)c(C)c2c1 | inactive
Cn1cnc([N+](=O)[O-])c1Oc1ccccc1 | inactive
CC1(C)CC(=O)c2c(Cc3ccccc3)n[nH]c2C1 | inactive
O=c1[nH]cnc2nn(-c3ccccc3)nc12 | inconclusive: 10 µM [activator, partial curve]
CCOc1ccc(-c2nc(CCl)cs2)cc1 | inconclusive: 20 µM [activator, partial curve, poor fit]
CC(C)CN(C(=O)COC(=O)CNC(=O)c1ccccc1F)C1CCS(=O)(=O)C1 (configuration not stated) | inactive
Cc1ccc(C)c(NC(=S)c2ccc3ccccc3n2)c1 | active: 11.2 µM
O=C(Nc1ccon1)c1cc2c(s1)CCCCCC2 | active: 12.6 µM
COc1ccc(-c2cc3c(nn2)-c2ccccc2C3=O)cc1 | active: 1.12 µM
Cc1nc2cc(C(=O)O)ccc2n1-c1ccc(C(C)C)cc1 | inconclusive: 15.8 µM [activator, partial curve]
c1ccc2nc(-c3ccc(N4CCOCC4)cc3)ccc2c1 | inconclusive: 0.794 µM [activator, full curve, poor fit]
Cc1nc2sc(C(=O)Nc3ccccc3)c(N)c2c(C)c1[N+](=O)[O-] | inconclusive: 3.16 µM [activator, partial curve, poor fit]
CCC(=O)Nc1sc(C(=O)Nc2ccccc2)c(C)c1C(=O)OC | active: 3.55 µM
CC(=O)c1sc(NC(=O)COc2ccccc2)nc1C | inconclusive: 15.8 µM [activator, partial curve, poor fit]
Cc1n[nH]c(=S)n1/N=C/c1ccc(OCc2ccc(Cl)cc2Cl)cc1 | inconclusive: 12.6 µM [activator, partial curve, poor fit]
O=C1C(Cl)=C(N2CCOCC2)C(=O)N1c1ccccc1 | inconclusive: 0.0316 µM [activator, full curve]
Cc1ccc(-c2nn3c(-c4ccc(C)cc4)nnc3c3ccccc23)cc1 | inactive
CC(C)c1ccc(NC(=O)c2ccc(Br)o2)cc1 | active: 2.51 µM
COc1cc(CN(C(=O)c2oc3ccccc3c2C)C2CCS(=O)(=O)C2)cc(OC)c1OC (configuration not stated) | inactive
CC(C)(O)C(=O)O | inactive
C=CCOc1c(CNc2ccc(C(=O)O)cc2)cccc1OCC | inconclusive: 35.5 µM [activator, single point]
CCC(SC1=Nc2ccccc2C2=NC(CC(C)C)C(=O)N12)C(=O)Nc1ccc2c(c1)OCO2 (configuration not stated) | inconclusive: 35.5 µM [activator, partial curve, poor fit]
Oc1ccccc1N=Cc1ccc[nH]1 | inconclusive: 11.2 µM [activator, partial curve]
O=C(Nc1ccc(NC(=O)c2ccco2)nc1)c1ccccn1 | active: 14.1 µM
CCOc1ccc(NC(=O)c2ccc(-c3cccc(Cl)c3C)o2)cc1 | inactive

Compound | Potency
CC(C)CCNC(=S)Nc1ccc([N+](=O)[O-])cc1 | inconclusive: 3.98 µM [activator, partial curve]
CCOC(=O)c1ccc(-c2c(C(=O)OCC)oc3cc(O)c(CC)cc3c2=O)o1 | inconclusive: 0.005 µM [activator, full curve, poor fit]
COc1ccc2nc(Nc3nc(-c4ccncc4)cs3)sc2c1 | inconclusive: 12.6 µM [activator, single point]
O=C(NC1CCCCCC1)C(=O)NC1CCCC1 | active: 12.6 µM
CC1(C)S[C@@H]2[C@H](NC(=O)[C@@H](NC(=O)N3CCNC3=O)c3ccccc3)C(=O)N2[C@H]1C(=O)O | inactive
Cc1ccc(N2C(=O)CC(Cn3nc(C)cc3C)C2=O)cc1 (configuration not stated) | inactive
Cn1cnnc1SCC(=O)Nc1ccc2nc(SCc3ccccc3F)sc2c1 | inconclusive: 22.4 µM [activator, single point]
CCc1cccc(NC(=O)c2ccc(NS(=O)(=O)c3c(C)noc3C)cc2)c1 | inconclusive: 0.0089 µM [activator, full curve, poor fit]
Cc1cccc(NC(=O)c2ccc(NCC3CCCO3)c([N+](=O)[O-])c2)n1 (configuration not stated) | inconclusive: 17.8 µM [activator, partial curve, poor fit]
CCC(=O)Nc1ccc2ccccc2c1 | inactive
COC(=O)CN(c1nc(C)cc(OC)n1)S(=O)(=O)c1ccccc1 | inconclusive: 4.47 µM [activator, full curve]
CC1(C)C2CCC1(C)C(NC(=O)/C=C/c1ccccc1)C2 (configuration not stated) | inactive
O=C(NCc1ccco1)[C@@H]1CCCN1C(=O)c1cccs1 | inconclusive: 11.2 µM [activator, single point]
CCc1nnc(NC(=O)Nc2ccccc2OC)s1 | inconclusive: 35.5 µM [activator, partial curve, poor fit]
O=C(c1ccc2c(c1)N(Cc1ccc(Cl)cc1)C(=O)c1ccccc1S2(=O)=O)N1CCC(Cc2ccccc2)CC1 | inactive
CN(C)S(=O)(=O)c1ccc(C(=O)Nc2c(C(=O)Nc3ccc(F)cc3)oc3ccccc23)cc1 | inactive
Cc1ccc2c(COC(=O)C3=COCCO3)cc(=O)oc2c1 | inconclusive: 17.8 µM [activator, single point]
Cn1c(=O)n(C)c2cc(/C=N/NC(N)=S)ccc21 | inconclusive: 12.6 µM [activator, partial curve]
Fc1cccc(NC(=S)NCc2ccccn2)c1 | inconclusive: 5.01 µM [activator, full curve]
COCCNC(=O)CSc1nc(N)c(NC(=O)c2ccccc2F)c(=O)[nH]1 | inactive
CCOC(=O)C1=C(N)Oc2ccc3ccccc3c2C1c1cccnc1 (configuration not stated) | inconclusive: 0.141 µM [activator, partial curve]
O=S(=O)(c1ccccc1)N1CCN(C(=S)NCc2ccccc2)CC1 | inconclusive: 28.2 µM [activator, single point]
Cc1c(C(=O)Nc2cc(S(=O)(=O)N3CCOCC3)ccc2N2CCOCC2)oc2ccccc12 | inactive
CCOC(=O)Cn1cc(C(=O)c2cccs2)c2ccccc21 | active: 0.141 µM
CN1CCO[C@H](c2ccccc2)c2ccccc2C1 | inactive
CN(C(=O)c1ccco1)c1nc2c(s1)CCCC2 | active: 14.1 µM

Compound | Potency
Cc1cc(NS(=O)(=O)c2ccc(NC(=O)Nc3ccc4c(c3)OCO4)cc2)no1 | inconclusive: 5.01 µM [activator, partial curve]
CCn1c(NCc2ccccc2Cl)nc2ccccc21 | inconclusive: 15.8 µM [activator, partial curve]
NCCn1c(-c2ccccc2)cc(C(=O)O)c1-c1ccccc1F | inconclusive: 5.62 µM [activator, single point]
CC(NC(=O)C12CC3CC(CC(C3)C1)C2)C(=O)N/N=C/C1=C(N2CCOCC2)C(=C\c2cccc([N+](=O)[O-])c2)/CC1 (configuration not stated) | inactive
c1cnc2c(SCc3ccc(-c4nnco4)cc3)cccc2c1 | inactive
C=C(C)C1CC=C(C)/C(=N/NC(=O)c2cccs2)C1 (configuration not stated) | inconclusive: 1.41 µM [activator, full curve, poor fit]
COc1ccc(C)cc1NC(=O)C1COc2ccccc2O1 (configuration not stated) | inconclusive: 35.5 µM [activator, single point]
O=C(COC(=O)CN1C(=O)C2CCCCC2C1=O)Nc1ccc(S(=O)(=O)N2CCOCC2)cc1 (configuration not stated) | inconclusive: 0.794 µM [activator, single point]
COc1ccc(C(=O)NCc2nnc(SCC(=O)Nc3nc4ccccc4s3)o2)cc1OC | inconclusive: 35.5 µM [activator, single point]
Cc1ccccc1C(=O)NNC(=O)Cc1cccc2ccccc12 | inconclusive: 5.62 µM [activator, full curve, poor fit]
O=Cc1cccc(OC(=O)c2ccc(Cl)cc2Cl)c1 | inconclusive: 12.6 µM [activator, partial curve, poor fit]
COc1cc(OC)cc(-c2nc(=S)n3ccsc3n2)c1 | inactive
COc1ccc(S(=O)(=O)N2CCC(C(=O)NC(C)c3ccccc3)CC2)cc1 (configuration not stated) | inactive
O=C1CC(N2CCN(c3ccccn3)CC2)C(=O)N1CC(c1ccccc1)c1ccccc1 (configuration not stated) | inactive
O=C(/C=C/c1ccc2c(c1)OCCCO2)c1ccccc1O | inconclusive: 8.91 µM [activator, partial curve, poor fit]
CCCCCC#CCC#CCC#CCC#CCCCC(=O)O | inconclusive: 12.6 µM [activator, partial curve, poor fit]
CC1=C(C(=O)O)N2C(=O)C(NC(=O)C(N)c3ccc(O)cc3)C2SC1 (configuration not stated) | inactive
CCc1ccc2occ(CC(=O)Nc3nnc(C)s3)c2c1 | inactive
Cc1nc(N2CCOCC2)c2nc(-c3ccccc3)n(CCN3CCCC3)c2n1 | inactive
Cc1ccc(-c2csc(=Nc3ccccc3)n2Cc2ccc3c(c2)OCO3)cc1 | inconclusive: 3.98 µM [activator, partial curve]
O=C(COC(=O)c1cc(S(=O)(=O)N2CCOCC2)ccc1O)NCCc1ccccc1 | inactive
Cc1ccc2c(Cl)c(C(=O)N/N=C/c3cccn3C)sc2c1 | active: 12.6 µM
O=C(c1sc2cc(F)ccc2c1Cl)N1CCN(c2ccccc2)CC1 | inactive
CC(=O)c1ccc(NCCC(=O)c2ccccc2)cc1 | inconclusive: 35.5 µM [activator, single point]
COc1ccc(-n2c(Cc3cc(=O)[nH]c(=O)[nH]3)nnc2SCC(=O)Nc2cc(C(F)(F)F)ccc2Cl)cc1 | inconclusive: 35.5 µM [activator, single point]
